Laboratory results as given in the supplement of paper PMC8728848.
The list shows a part of the results.

How the values were obtained:
Test in all cases: glycan array binding signal (z-score within array); higher = stronger binding
Settings in all cases: glycan notation: IUPAC condensed, linker removed
[1] = biological target: GlcNAc(b1-2)[GlcNAc(b1-4)]Man(a1-3)[GlcNAc(b1-4)][GlcNAc(b1-2)[GlcNAc(b1-6)]Man(a1-6)]Man(b1-4)GlcNAc(b1-4)GlcNAc
Summary of the method: (§1)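 Arrays were curated from the Consortium for Functional Glycomics database, 3228 in total, and kept only where the protein sequence was available. Binding is expressed as a within-array Z-score. This score was averaged across arrays of the same protein sequence at different concentrations or buffers and across linkers, and negative values can be read as non-binding.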

[2] = biological target: GlcNAc(b1-2)[GlcNAc(b1-4)]Man(a1-3)[GlcNAc(b1-4)][GlcNAc(b1-2)[GlcNAc(b1-6)]Man(a1-6)]Man(b1-4)GlcNAc(b1-4)[Fuc(a1-6)]GlcNAc
Summary of the method: as §1

[3] = biological target: GlcNAc(b1-2)[GlcNAc(b1-6)]Man(a1-6)[GlcNAc(b1-2)Man(a1-3)]Man(b1-4)GlcNAc(b1-4)GlcNAc
Summary of the method: as §1

[4] = biological target: GlcNAc(b1-2)[GlcNAc(b1-6)]Man(a1-6)[GlcNAc(b1-2)Man(a1-3)]Man(b1-4)GlcNAc(b1-4)[Fuc(a1-6)]GlcNAc
Summary of the method: as §1

[5] = biological target: GlcNAc(b1-2)[GlcNAc(b1-6)]Man(a1-6)[GlcNAc(b1-4)][GlcNAc(b1-2)Man(a1-3)]Man(b1-4)GlcNAc(b1-4)GlcNAc
Summary of the method: as §1

[6] = biological target: GlcNAc(b1-3)Fuc
Summary of the method: as §1

[7] = biological target: GlcNAc(b1-3)Gal
Summary of the method: as §1

[8] = biological target: GlcNAc(b1-3)Gal(b1-3)GalNAc
Summary of the method: as §1

[9] = biological target: GlcNAc(b1-3)Gal(b1-4)Glc
Summary of the method: as §1

[10] = biological target: GlcNAc(b1-3)Gal(b1-4)GlcNAc
Summary of the method: as §1

[11] = biological target: GlcNAc(b1-3)Gal(b1-4)GlcNAc(b1-2)Man(a1-3)[GlcNAc(b1-3)Gal(b1-4)GlcNAc(b1-2)Man(a1-6)]Man(b1-4)GlcNAc(b1-4)GlcNAc
Summary of the method: as §1

[12] = biological target: GlcNAc(b1-3)Gal(b1-4)GlcNAc(b1-2)Man(a1-3)[GlcNAc(b1-3)Gal(b1-4)GlcNAc(b1-2)Man(a1-6)]Man(b1-4)GlcNAc(b1-4)[Fuc(a1-6)]GlcNAc
Summary of the method: as §1

[13] = biological target: GlcNAc(b1-3)Gal(b1-4)GlcNAc(b1-2)[GlcNAc(b1-3)Gal(b1-4)GlcNAc(b1-6)]Man(a1-6)[GlcNAc(b1-3)Gal(b1-4)GlcNAc(b1-2)Man(a1-3)]Man(b1-4)GlcNAc(b1-4)GlcNAc
Summary of the method: as §1

[14] = biological target: GlcNAc(b1-3)Gal(b1-4)GlcNAc(b1-3)Gal(b1-4)GlcNAc
Summary of the method: as §1

[15] = biological target: GlcNAc(b1-3)Gal(b1-4)GlcNAc(b1-3)Gal(b1-4)GlcNAc(b1-2)Man(a1-3)[GlcNAc(b1-3)Gal(b1-4)GlcNAc(b1-3)Gal(b1-4)GlcNAc(b1-2)Man(a1-6)]Man(b1-4)GlcNAc(b1-4)GlcNAc
Summary of the method: as §1

[16] = biological target: GlcNAc(b1-3)Gal(b1-4)GlcNAc(b1-3)Gal(b1-4)GlcNAc(b1-2)Man(a1-3)[GlcNAc(b1-3)Gal(b1-4)GlcNAc(b1-3)Gal(b1-4)GlcNAc(b1-2)Man(a1-6)]Man(b1-4)GlcNAc(b1-4)[Fuc(a1-6)]GlcNAc
Summary of the method: as §1

[17] = biological target: GlcNAc(b1-3)Gal(b1-4)GlcNAc(b1-3)Gal(b1-4)GlcNAc(b1-2)[GlcNAc(b1-3)Gal(b1-4)GlcNAc(b1-3)Gal(b1-4)GlcNAc(b1-6)]Man(a1-6)[GlcNAc(b1-3)Gal(b1-4)GlcNAc(b1-3)Gal(b1-4)GlcNAc(b1-2)Man(a1-3)]Man(b1-4)GlcNAc(b1-4)[Fuc(a1-6)]GlcNAc
Summary of the method: as §1

[18] = biological target: GlcNAc(b1-3)Gal(b1-4)GlcNAc(b1-3)Gal(b1-4)GlcNAc(b1-3)Gal(b1-4)GlcNAc(b1-2)Man(a1-3)[GlcNAc(b1-3)Gal(b1-4)GlcNAc(b1-3)Gal(b1-4)GlcNAc(b1-3)Gal(b1-4)GlcNAc(b1-2)Man(a1-6)]Man(b1-4)GlcNAc(b1-4)GlcNAc
Summary of the method: as §1

[19] = biological target: GlcNAc(b1-3)Gal(b1-4)GlcNAc(b1-3)Gal(b1-4)GlcNAc(b1-3)Gal(b1-4)GlcNAc(b1-2)Man(a1-3)[GlcNAc(b1-3)Gal(b1-4)GlcNAc(b1-3)Gal(b1-4)GlcNAc(b1-3)Gal(b1-4)GlcNAc(b1-2)Man(a1-6)]Man(b1-4)GlcNAc(b1-4)[Fuc(a1-6)]GlcNAc
Summary of the method: as §1

[20] = biological target: GlcNAc(b1-3)Gal(b1-4)GlcNAc(b1-3)Gal(b1-4)GlcNAc(b1-3)Gal(b1-4)GlcNAc(b1-2)[GlcNAc(b1-3)Gal(b1-4)GlcNAc(b1-3)Gal(b1-4)GlcNAc(b1-3)Gal(b1-4)GlcNAc(b1-6)]Man(a1-6)[GlcNAc(b1-3)Gal(b1-4)GlcNAc(b1-3)Gal(b1-4)GlcNAc(b1-3)Gal(b1-4)GlcNAc(b1-2)Man(a1-3)]Man(b1-4)GlcNAc(b1-4)[Fuc(a1-6)]GlcNAc
Summary of the method: as §1

[21] = biological target: GlcNAc(b1-3)Gal(b1-4)GlcNAc(b1-3)Gal(b1-4)GlcNAc(b1-3)Gal(b1-4)GlcNAc(b1-3)Gal(b1-4)GlcNAc(b1-2)Man(a1-3)[GlcNAc(b1-3)Gal(b1-4)GlcNAc(b1-3)Gal(b1-4)GlcNAc(b1-3)Gal(b1-4)GlcNAc(b1-3)Gal(b1-4)GlcNAc(b1-2)Man(a1-6)]Man(b1-4)GlcNAc(b1-4)GlcNAc
Summary of the method: as §1

[22] = biological target: GlcNAc(b1-3)Gal(b1-4)GlcNAc(b1-3)Gal(b1-4)GlcNAc(b1-3)Gal(b1-4)GlcNAc(b1-3)Gal(b1-4)GlcNAc(b1-2)Man(a1-3)[GlcNAc(b1-3)Gal(b1-4)GlcNAc(b1-3)Gal(b1-4)GlcNAc(b1-3)Gal(b1-4)GlcNAc(b1-3)Gal(b1-4)GlcNAc(b1-2)Man(a1-6)]Man(b1-4)GlcNAc(b1-4)[Fuc(a1-6)]GlcNAc
Summary of the method: as §1

[23] = biological target: GlcNAc(b1-3)Gal(b1-4)GlcNAc(b1-3)Gal(b1-4)GlcNAc(b1-3)Gal(b1-4)GlcNAc(b1-3)Gal(b1-4)GlcNAc(b1-2)[GlcNAc(b1-3)Gal(b1-4)GlcNAc(b1-3)Gal(b1-4)GlcNAc(b1-3)Gal(b1-4)GlcNAc(b1-3)Gal(b1-4)GlcNAc(b1-6)]Man(a1-6)[GlcNAc(b1-3)Gal(b1-4)GlcNAc(b1-3)Gal(b1-4)GlcNAc(b1-3)Gal(b1-4)GlcNAc(b1-3)Gal(b1-4)GlcNAc(b1-2)Man(a1-3)]Man(b1-4)GlcNAc(b1-4)[Fuc(a1-6)]GlcNAc
Summary of the method: as §1

B1: rEtpA (Escherichia coli) (protein)
chain: MNRIYKLKFDKRRNELVVVSEITTGVGNAKATGSVEGEKSPRRGVRAMALSLLSGMMIMAHPAMSANLPTGGQIVAGSGSIQTPSGNQMNIHQNSQNMVANWNSFDIGKGNTVQFDQPSSSAVALNRVVGGGESQIMGNLKANGQVFLVNPNGVLFGEGASVSTSGFVASTRDIKNDDFMNRRYTFSGGQKAGAAIVNQGELTTNAGGYIVLAADRVSNSGTIRTPGGKTVLAASERITLQLDNGGLMSVQVTGDVVNALVENRGLVSARDGQVYLTALGRGMLMNTVLNVSGVVEASGMHRQDGNIVLDGGDSGVVHLSGTLQADNASGQGGKVVVQGKNILLDKGSNITATGGQGGGEVYVGGGWQGKDSNIRNADKVVMQGGARIDVSATQQGNGGTAVLWSDSYTNFHGQISAKGGETGGNGGRVETSSHGNLQAFGTVSASAKKGKAGNWLLDSADITIVNGSNVSKTETTQSPPHTQFAPTAAGSAVSNTSINNRLNNGTSVTILTHRTRTGTAQGGNITVNAAINKSNGSDVNLTLQAGGNITVNNSITSTEGKLNVNLSGARTSNGSITISNNANITTNGGDITVGTTNTSNRVNISINNTTLNASNGNIQLTGTGTDSGILFAGNNRLTASNIALTGNSTSGNAINLTGTATLNATNNITLTGSSTSGNAINLKGNNTLTASNITLTGESTSGNAINLTDTTGTTTLNATNNITMQGTRVQIKHSNITAGNFALNATVAGSEISNTTLTATNNINLAAKTNSASSGVYLKDARITSTNGSITANGTATANGKATHLDGNVTLNASNGRIKLTGNGHGSASGILFAGNNRLTASNIALTGNSTSGNAINLTGTATLNATNDITLTGSSTSGNAINLTGTATLNATNNITLTGSSTSGNAINLKGNNTLTASNITLTGESTSGNAINLTDTTGTTTLNATNNITMQGTRVQIKHSNITAGNFALNATVAGSEISNTTLTATNNINLAAKTNSASSGVYLKDARITSTNGSITANGTATANGKATHLDGNVTLNASNGRIKLTGNGHGSASGILFAGNNRLTASNIALTGNSTSGNAINLTGTATLNATNDITLTGSSTSGNAINLTGTATLNATNNITLTGSSTSGNAINLKGNNTLTASNITLTGESTSGNAINLTDTTGTTTLNATNNITMQGTRVQIKHSNITAGNFALNATVAGSEISNTTLTATNNINLAAKTNSASSGVYLKDARITSTNGSITANGTATANGKATHLDGNVTLNASNGRIKLTGNGHGSASGILFAGNNRLTASNIALTGNSTSGNAINLTGTATLNATNDITLTGSSTSGNAINLTGTATLNATNNITLTGSSTSGNAINLKGNNTLTASNITLTGESTSGNAINLTDTTGTTTLNATNNITMQGTRVQIKHSNITAGNFALNATVAGSEISNTTLTATNNINLAAKTNSASSGVYLKDARITSTNGSITTNGTATANGKATHLDGNVTLNASNGRIKLTGNGHGSASGILFAGNNRLTASNIALTGNSTSGNAINLTGTATLNATNDITLTGSSTSGNAINLTGTATLNATNNITLTGSSTSGNAINLKGNNTLTASNITLTGESTSGNAINLTDTTGTTTLNATNNITMQGTRVQIKHSNITAGNFALNATVAGSEISNTTLTATNNINLAAKTNSASSGVYLKDARITSTNGSITANGTAPANDNATYLDGNVTLNASNGSIKLTGNGNGSTSGILFAGNNTLTASNITLTGNSEVYWQKLGPEQKLISEEDLNSAVDHHHHHH
glycan array binding signal (z-score) [1]: -0.311 | glycan array binding signal (z-score) [2]: -0.319 | glycan array binding signal (z-score) [3]: -0.317 | glycan array binding signal (z-score) [4]: -0.327 | glycan array binding signal (z-score) [5]: -0.439 | glycan array binding signal (z-score) [6]: -0.018 | glycan array binding signal (z-score) [7]: -0.454 | glycan array binding signal (z-score) [8]: -0.309 | glycan array binding signal (z-score) [9]: -0.338 | glycan array binding signal (z-score) [10]: -0.306 | glycan array binding signal (z-score) [11]: -0.424 | glycan array binding signal (z-score) [12]: -0.368 | glycan array binding signal (z-score) [13]: -0.332 | glycan array binding signal (z-score) [14]: -0.428 | glycan array binding signal (z-score) [15]: -0.311 | glycan array binding signal (z-score) [16]: -0.303 | glycan array binding signal (z-score) [17]: -0.348 | glycan array binding signal (z-score) [18]: -0.304 | glycan array binding signal (z-score) [19]: -0.338 | glycan array binding signal (z-score) [20]: -0.288 | glycan array binding signal (z-score) [21]: -0.353 | glycan array binding signal (z-score) [22]: -0.388 | glycan array binding signal (z-score) [23]: -0.164
